This is an account of results in US20240209098A1 (NAVIGO PROTEINS, published 2024).

The target in one experiment is T1, VEGF-A (VEGF-165) (human, UniProt P15692-4 27-191).
T1 construct: The isoforms are said to be active as dimers; also called vascular endothelial growth factor
T1 sequence (looked up): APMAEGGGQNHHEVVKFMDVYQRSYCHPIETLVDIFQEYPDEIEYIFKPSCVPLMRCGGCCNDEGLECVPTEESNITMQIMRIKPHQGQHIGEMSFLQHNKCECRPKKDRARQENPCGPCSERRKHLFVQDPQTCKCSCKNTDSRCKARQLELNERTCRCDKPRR
Description: SPR (Biacore 3000), target immobilised on CM5 chip, fusion protein as analyte, Langmuir 1:1. As for the experimental part:
(§1) Binding of Type II collagen or VEGF-A was evaluated by SPR measurements using Biacore 3000 (GE Healthcare). Purified Type II collagen was obtained by Chondrex.inc and VEGF-A (VEGF-165) was obtained by Millipore. The purified target proteins were immobilized on a CM-5 sensor chip (GE Healthcare) using NHS/EDC after PDEA activation resulting in about 1000 RU. The chip was equilibrated with SPR running buffer (PBS 0.05% Tween pH 7.3).
(§2) The analytes were applied to the chip in serial dilutions with a flow rate of 30 μl/min. The association was performed for 120 seconds and the dissociation for 120 seconds. After each run, the chip surface was regenerated with 30 μl regeneration buffer (10 mM glycine pH 2.0) and equilibrated with running buffer. Upon binding, fusion proteins were accumulated on the surface increasing the refractive index. This change in the refractive index was measured in real time and plotted as response or resonance units versus time. Data evaluation was operated via the BIAevaluation 3.0 software, provided by the manufacturer, by the use of the Langmuir 1:1 model (RI=0). Evaluated dissociation constants (KD) were standardized against the immobilized fusion protein and indicated. Shown is the change in refractive index measured in real time and plotted as response or resonance unit [RU] versus time [sec].

Experiment [1] concerns the target T2, pig Type II collagen (pig).
T2 construct: also called pCol2; pColII
The experiment is described as above. As to the method:
as §1, §2

Experiment [2] deals with T3, rabbit Type II collagen (rabbit).
T3 construct: also called rbCol2; rbColII
The description is as above. As for the experimental part: as §1, §2

The target of a further experiment is T4, human Type I collagen (human, UniProt P02452 partial chain; P08123 80-1119).
T4 construct: also called hColI; Col I
Description: ELISA, human Type I collagen coated on the plate, detection with anti-human-IgG antibody. As to the method: (§3) High binding plates (Greiner, 781061) were immobilized with 2.5 μg/ml recombinant human Type II collagen (hColll, Chondrex, CHX-20051), rabbit Type II collagen (rbColll, prepared from rabbit eyes), porcine Type 11 collagen (pColll, prepared from porcine eyes), human Type I collagen (hColl, Sigma, C5483-1MG), human Type V collagen (hCoIV, Abcam, ab7537), human Type III collagen (hCollll, Abcam, ab7535) and 67B89 (domain of fibronectin, produced in E. coli) over night at 4° C. Fusion proteins CID 212709, CID 213182, CID 213184 and CID 213340 were analyzed with a dilution series in a range of 1111 nM to 6.9×10⁻⁵ nM. ELISA-plates were washed 3 times with PBST (PBS+0.1% Tween) and blocked with 3% BSA/0.5% Tween/PBS 2 h at RT. Plates were washed with PBST and incubated with a-human-IgG-antibody at a dilution of 1:10000. Results.

The target in another experiment is T5, human Type V collagen (human, UniProt P20908 559-1570; P05997 216-1229).
T5 construct: also called hColV; Col V
The experiment is described as follows: ELISA, human Type V collagen coated on the plate, detection with anti-human-IgG antibody. As to the method:
as §3

The next experiment deals with T6, human Type III collagen (human, UniProt P02461 154-1221).
T6 construct: also called hColIII; Col III
T6 sequence (looked up): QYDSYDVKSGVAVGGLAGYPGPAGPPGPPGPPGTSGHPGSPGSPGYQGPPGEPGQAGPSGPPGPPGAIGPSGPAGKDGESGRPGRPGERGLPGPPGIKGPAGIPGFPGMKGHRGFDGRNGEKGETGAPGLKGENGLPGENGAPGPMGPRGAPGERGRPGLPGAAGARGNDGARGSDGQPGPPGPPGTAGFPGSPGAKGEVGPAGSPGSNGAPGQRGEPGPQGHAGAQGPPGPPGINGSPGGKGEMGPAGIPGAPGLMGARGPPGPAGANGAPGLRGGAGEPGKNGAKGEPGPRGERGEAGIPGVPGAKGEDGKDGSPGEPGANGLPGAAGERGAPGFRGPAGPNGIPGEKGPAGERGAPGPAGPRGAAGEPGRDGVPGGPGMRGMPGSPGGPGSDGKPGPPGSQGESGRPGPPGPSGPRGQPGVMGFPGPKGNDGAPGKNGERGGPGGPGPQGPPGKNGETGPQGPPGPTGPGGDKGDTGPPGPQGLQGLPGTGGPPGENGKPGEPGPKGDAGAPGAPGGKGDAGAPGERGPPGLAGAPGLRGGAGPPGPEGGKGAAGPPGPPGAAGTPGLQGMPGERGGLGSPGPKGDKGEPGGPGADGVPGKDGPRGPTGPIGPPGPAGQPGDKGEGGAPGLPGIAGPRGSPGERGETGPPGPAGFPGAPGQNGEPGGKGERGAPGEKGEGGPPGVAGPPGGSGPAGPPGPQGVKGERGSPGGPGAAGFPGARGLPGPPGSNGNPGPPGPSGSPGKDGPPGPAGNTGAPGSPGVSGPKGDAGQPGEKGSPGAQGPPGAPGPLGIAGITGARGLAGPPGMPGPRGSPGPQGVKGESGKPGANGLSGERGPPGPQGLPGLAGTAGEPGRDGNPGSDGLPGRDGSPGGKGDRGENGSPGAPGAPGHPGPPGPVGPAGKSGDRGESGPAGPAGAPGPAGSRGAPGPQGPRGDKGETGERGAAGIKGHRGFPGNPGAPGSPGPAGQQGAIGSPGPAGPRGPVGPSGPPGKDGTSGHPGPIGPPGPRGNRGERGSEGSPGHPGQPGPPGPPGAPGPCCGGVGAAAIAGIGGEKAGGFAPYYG
Description: ELISA, human Type III collagen coated on the plate, detection with anti-human-IgG antibody. As to the method: as §3

Experiment [3] addresses T7, 67B89 (domain of fibronectin, produced in E. coli) (UniProt P02751 1089-1540, limits assumed).
T7 construct: domain: 67B89 (domain of fibronectin)
The experiment is described as follows: ELISA, 67B89 (fibronectin domain) coated on the plate, detection with anti-human-IgG antibody. As to the method: as §3

For experiment [4], the target named is T2, pig Type II collagen. Description: ELISA, pig Type II collagen coated on the plate, fusion protein titrated, detection with anti-human-IgG antibody. As for the experimental part: as §3
Experiment [5] has as its target T3, rabbit Type II collagen. The experiment is described as follows: ELISA, rabbit Type II collagen coated on the plate, fusion protein titrated, detection with anti-human-IgG antibody. As to the method:
as §3

Chain of human Type V collagen (P20908 559-1570, chain 1 of 2): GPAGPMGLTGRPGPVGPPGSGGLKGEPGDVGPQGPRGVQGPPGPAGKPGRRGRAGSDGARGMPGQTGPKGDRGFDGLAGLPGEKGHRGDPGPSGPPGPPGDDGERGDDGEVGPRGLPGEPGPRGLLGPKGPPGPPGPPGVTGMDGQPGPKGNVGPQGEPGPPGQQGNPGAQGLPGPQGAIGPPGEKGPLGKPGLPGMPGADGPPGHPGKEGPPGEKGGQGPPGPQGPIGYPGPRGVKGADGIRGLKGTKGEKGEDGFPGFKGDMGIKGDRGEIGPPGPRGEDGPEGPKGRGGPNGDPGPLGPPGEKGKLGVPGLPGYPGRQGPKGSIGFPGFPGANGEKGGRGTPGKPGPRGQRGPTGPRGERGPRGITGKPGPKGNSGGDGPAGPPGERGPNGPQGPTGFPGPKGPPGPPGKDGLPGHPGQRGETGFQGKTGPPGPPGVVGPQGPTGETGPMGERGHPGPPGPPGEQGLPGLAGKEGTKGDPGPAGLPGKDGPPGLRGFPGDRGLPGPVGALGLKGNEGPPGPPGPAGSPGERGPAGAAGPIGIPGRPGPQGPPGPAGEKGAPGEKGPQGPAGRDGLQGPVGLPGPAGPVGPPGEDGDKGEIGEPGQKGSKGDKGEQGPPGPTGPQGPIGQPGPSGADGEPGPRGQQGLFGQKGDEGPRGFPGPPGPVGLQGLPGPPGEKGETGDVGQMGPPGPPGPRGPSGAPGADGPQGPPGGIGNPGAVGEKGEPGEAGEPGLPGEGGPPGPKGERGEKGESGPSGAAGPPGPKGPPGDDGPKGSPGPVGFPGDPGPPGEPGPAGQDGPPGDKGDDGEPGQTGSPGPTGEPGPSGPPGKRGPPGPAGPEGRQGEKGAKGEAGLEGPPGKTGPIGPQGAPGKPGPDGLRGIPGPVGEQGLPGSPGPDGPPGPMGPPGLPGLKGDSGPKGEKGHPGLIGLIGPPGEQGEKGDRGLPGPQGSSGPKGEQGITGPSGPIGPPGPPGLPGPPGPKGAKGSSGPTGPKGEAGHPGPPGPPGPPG
Chain of human Type V collagen (P05997 216-1229, chain 2 of 2, further chain): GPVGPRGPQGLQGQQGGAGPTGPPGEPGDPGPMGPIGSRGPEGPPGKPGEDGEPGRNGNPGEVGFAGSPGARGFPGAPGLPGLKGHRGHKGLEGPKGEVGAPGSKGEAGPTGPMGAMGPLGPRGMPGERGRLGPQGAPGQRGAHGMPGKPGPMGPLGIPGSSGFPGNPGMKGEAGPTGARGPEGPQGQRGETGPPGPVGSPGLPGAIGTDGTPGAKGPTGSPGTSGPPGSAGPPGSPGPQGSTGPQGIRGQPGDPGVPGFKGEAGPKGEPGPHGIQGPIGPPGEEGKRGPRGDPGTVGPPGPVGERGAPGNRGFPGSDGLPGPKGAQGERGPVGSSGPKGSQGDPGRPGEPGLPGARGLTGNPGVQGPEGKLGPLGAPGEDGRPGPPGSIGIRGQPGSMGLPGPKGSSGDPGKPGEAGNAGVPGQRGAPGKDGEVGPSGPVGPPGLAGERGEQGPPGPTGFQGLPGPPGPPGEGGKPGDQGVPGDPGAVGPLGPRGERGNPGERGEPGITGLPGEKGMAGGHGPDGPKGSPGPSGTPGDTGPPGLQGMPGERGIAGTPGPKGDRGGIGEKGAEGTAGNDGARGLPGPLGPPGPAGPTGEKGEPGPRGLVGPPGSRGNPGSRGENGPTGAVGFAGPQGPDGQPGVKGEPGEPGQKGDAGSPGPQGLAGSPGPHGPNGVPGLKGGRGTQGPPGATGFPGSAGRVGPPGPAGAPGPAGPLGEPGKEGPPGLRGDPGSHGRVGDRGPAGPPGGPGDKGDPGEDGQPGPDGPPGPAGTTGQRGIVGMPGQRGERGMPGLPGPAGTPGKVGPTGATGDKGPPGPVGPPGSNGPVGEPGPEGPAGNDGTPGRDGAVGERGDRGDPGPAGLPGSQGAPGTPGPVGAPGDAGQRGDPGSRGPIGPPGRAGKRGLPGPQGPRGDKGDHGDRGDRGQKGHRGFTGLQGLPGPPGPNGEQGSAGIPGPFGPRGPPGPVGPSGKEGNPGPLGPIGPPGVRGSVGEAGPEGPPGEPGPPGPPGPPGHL
T7 sequence (P02751 1089-1540 limits assumed): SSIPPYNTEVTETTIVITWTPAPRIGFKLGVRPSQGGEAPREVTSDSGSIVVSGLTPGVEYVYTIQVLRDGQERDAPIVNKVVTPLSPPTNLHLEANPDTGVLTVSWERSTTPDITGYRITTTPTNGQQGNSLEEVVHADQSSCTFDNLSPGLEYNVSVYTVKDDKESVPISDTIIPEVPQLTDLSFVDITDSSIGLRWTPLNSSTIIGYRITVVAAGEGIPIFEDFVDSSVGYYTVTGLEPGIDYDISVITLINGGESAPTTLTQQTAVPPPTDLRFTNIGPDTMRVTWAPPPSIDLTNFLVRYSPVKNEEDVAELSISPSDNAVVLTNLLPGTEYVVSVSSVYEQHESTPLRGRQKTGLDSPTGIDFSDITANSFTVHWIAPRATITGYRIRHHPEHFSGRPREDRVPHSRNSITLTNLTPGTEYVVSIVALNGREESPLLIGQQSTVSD
Chain of human Type I collagen (P02452 162-1218, chain 1 of 2): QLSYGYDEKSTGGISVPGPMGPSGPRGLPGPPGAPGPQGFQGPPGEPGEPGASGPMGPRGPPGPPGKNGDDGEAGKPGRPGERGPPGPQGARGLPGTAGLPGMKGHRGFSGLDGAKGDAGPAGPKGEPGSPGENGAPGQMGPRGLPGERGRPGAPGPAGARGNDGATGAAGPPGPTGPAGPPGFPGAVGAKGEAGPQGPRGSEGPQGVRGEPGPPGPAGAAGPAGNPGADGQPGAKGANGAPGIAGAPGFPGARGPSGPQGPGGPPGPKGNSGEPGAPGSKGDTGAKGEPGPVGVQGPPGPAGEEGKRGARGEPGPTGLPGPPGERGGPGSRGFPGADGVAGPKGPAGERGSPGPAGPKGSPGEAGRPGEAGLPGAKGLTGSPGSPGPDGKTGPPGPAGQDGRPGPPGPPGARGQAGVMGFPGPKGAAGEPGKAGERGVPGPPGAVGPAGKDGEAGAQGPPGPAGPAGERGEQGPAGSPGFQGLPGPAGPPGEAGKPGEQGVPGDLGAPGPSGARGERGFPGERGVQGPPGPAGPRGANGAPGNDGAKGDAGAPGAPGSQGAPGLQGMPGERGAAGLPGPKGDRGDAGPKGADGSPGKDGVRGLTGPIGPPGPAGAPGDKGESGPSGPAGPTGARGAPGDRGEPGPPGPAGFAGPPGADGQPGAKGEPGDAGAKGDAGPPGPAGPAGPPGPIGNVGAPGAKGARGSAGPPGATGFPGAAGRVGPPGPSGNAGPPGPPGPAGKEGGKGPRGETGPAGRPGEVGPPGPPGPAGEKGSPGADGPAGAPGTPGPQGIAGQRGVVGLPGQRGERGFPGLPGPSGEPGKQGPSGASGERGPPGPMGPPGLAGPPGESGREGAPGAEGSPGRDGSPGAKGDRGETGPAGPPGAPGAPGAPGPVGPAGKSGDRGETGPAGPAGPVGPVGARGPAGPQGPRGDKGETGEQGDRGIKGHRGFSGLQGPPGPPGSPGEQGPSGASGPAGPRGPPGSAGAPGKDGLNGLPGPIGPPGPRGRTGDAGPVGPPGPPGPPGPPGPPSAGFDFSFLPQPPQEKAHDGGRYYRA
Chain of human Type I collagen (P08123 80-1119, chain 2 of 2, further chain): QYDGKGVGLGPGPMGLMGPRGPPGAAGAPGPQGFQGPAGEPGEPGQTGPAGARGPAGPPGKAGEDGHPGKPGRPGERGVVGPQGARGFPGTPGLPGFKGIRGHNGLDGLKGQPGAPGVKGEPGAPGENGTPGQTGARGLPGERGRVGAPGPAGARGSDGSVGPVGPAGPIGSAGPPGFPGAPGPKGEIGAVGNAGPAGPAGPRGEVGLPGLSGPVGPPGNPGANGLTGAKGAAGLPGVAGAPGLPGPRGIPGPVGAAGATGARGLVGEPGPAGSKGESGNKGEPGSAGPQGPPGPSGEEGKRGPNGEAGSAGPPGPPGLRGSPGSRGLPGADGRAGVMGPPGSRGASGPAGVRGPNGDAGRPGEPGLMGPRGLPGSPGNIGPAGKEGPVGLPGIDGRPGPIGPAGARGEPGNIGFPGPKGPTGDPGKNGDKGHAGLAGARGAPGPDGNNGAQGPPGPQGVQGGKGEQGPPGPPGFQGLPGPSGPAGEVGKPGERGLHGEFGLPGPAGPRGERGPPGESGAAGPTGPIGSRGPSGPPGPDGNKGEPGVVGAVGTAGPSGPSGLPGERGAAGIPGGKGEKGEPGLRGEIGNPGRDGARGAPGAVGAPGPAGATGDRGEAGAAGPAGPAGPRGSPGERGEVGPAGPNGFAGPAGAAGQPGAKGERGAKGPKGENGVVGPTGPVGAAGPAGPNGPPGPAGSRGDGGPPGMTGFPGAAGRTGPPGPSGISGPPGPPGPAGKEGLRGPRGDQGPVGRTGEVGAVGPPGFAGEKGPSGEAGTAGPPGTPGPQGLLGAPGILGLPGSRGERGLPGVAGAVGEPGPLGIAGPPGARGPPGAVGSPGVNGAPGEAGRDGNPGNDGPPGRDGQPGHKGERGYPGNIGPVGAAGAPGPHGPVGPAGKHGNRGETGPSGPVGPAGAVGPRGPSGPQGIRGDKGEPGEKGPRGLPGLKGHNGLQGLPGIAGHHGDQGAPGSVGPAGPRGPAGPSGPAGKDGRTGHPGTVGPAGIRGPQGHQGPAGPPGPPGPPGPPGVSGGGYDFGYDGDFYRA

B1: CID 217793, fusion protein n[Col2-BP1_as dimer - VEGF-BP]c (Fc fusion)
chain: IAAKFDEAQSAADSEILHLPNLTEQQRHYFRRWLSDDPSVSTHILTQAQHLNDDQAPKIAAKFDEAQSAADSEILHLPNLTEQQRHYFRRWLSDDPSVSTHILTQAQHLNDDQAPKGGGGSGGGGSGGGGSSDTGRPFVEMYSEIPEIIHMTEGRELVIPCRVTSPNITVTLKKFPLDTLIPDGKRIIWDSRKGFIISNATYKEIGLLTCEATVNGHLYKTNYLTHRQTNTIIDVVLSPSHGIELSVGEKLVLNCTARTELNVGIDFNWEYPSSKHQHKKLVNRDLKTQSGSEMKKFLSTLTIDGVTRSDQGLYTCAASSGLMTKKNSTFVRVHEK[skipping human IgG1 Fc]
notes: Col2-BP1 at the N-terminus, Aflibercept at the C-terminus
In the case of B1, the Kd in the experiment with VEGF-A (VEGF-165) stood at 2 nM.

B2: CID 213182, fusion protein n[VEGF-BP, Col2-BP1 as dimer]c (Fc fusion)
chain: SDTGRPFVEMYSEIPEIIHMTEGRELVIPCRVTSPNITVTLKKFPLDTLIPDGKRIIWDSRKGFIISNATYKEIGLLTCEATVNGHLYKTNYLTHRQTNTIIDVVLSPSHGIELSVGEKLVLNCTARTELNVGIDFNWEYPSSKHQHKKLVNRDLKTQSGSEMKKFLSTLTIDGVTRSDQGLYTCAASSGLMTKKNSTFVRVHEK[skipping human IgG1 Fc]GGGSGGGGSGGGGSIAAKFDEAQSAADSEILHLPNLTEQQRHYFRRWLSDDPSVSTHILTQAQHLNDDQAPKIAAKFDEAQSAADSEILHLPNLTEQQRHYFRRWLSDDPSVSTHILTQAQHLNDDQAPK
notes: Made in Expi293-F cells; also called fusion protein 213182
As for B2, the Kd was found to be 1.15 nM with pig Type II collagen [1]; 1.05 nM with rabbit Type II collagen [2]; 2.2 nM in the experiment with VEGF-A (VEGF-165); 0.11 nM in the experiment with pig Type II collagen [4]; 0.11 nM in the experiment with rabbit Type II collagen [5]. Besides, the binding result (with human Type I collagen; in the experiment with human Type V collagen; in the experiment with human Type III collagen; in [3]) was “no binding” each time.

B3: CID 213184, fusion protein n[VEGF-BP, Col2-BP1 as tetramer]c (Fc fusion)
chain: SDTGRPFVEMYSEIPEIIHMTEGRELVIPCRVTSPNITVTLKKFPLDTLIPDGKRIIWDSRKGFIISNATYKEIGLLTCEATVNGHLYKTNYLTHRQTNTIIDVVLSPSHGIELSVGEKLVLNCTARTELNVGIDFNWEYPSSKHQHKKLVNRDLKTQSGSEMKKFLSTLTIDGVTRSDQGLYTCAASSGLMTKKNSTFVRVHEK[skipping human IgG1 Fc]GGGSGGGGSGGGGSIAAKFDEAQSAADSEILHLPNLTEQQRHYFRRWLSDDPSVSTHILTQAQHLNDDQAPKIAAKFDEAQSAADSEILHLPNLTEQQRHYFRRWLSDDPSVSTHILTQAQHLNDDQAPKIAAKFDEAQSAADSEILHLPNLTEQQRHYFRRWLSDDPSVSTHILTQAQHLNDDQAPKIAAKFDEAQSAADSEILHLPNLTEQQRHYFRRWLSDDPSVSTHILTQAQHLNDDQAPK
notes: also called fusion protein 213184
For the molecule B3, the Kd in the experiment with pig Type II collagen [1] is 0.39 nM; with rabbit Type II collagen [2], 0.52 nM; with VEGF-A (VEGF-165) it was 4.14 nM.
